Test results published in the supplement of paper PMC3334620.
Whole data set: some 33,000 sequences, median “E-score (-0.5 to 0.5)” near -0.043, cut for the highest 2% near 0.37. This is one part of the list.

biological target: T1, Upc2 (UniProt Q12151); assay: PBM E-score (8-mer binding enrichment) (E-score (-0.5 to 0.5)); higher = stronger / more preferred TF binding; most listed sequences are background and not binding sites; settings: protein concentration: 200 nM; construct: GST-full length
T1 sequence: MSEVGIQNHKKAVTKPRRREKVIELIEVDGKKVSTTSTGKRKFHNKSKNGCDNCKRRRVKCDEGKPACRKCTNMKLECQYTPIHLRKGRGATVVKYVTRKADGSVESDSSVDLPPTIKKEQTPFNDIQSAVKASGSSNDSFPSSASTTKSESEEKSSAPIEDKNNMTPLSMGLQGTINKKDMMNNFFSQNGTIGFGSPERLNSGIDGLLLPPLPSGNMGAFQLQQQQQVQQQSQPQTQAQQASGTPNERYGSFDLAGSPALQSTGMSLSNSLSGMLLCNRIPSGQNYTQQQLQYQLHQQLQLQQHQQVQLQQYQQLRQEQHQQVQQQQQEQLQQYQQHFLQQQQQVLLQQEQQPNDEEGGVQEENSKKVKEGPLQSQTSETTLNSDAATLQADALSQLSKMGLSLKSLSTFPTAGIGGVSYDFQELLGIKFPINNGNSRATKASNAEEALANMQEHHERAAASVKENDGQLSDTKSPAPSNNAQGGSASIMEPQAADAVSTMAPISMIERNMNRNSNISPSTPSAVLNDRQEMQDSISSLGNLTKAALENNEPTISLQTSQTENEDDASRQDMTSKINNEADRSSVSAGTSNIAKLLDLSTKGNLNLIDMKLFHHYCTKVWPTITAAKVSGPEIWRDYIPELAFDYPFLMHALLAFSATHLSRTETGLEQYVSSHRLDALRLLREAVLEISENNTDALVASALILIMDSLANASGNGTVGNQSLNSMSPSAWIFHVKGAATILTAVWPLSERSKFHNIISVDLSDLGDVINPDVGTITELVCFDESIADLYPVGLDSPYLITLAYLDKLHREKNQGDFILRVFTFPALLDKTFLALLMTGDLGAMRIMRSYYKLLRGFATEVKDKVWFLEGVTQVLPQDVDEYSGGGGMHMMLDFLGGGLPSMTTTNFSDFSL
In short: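 GST-tagged yeast TFs (full-length or DNA-binding domain) were made by PURExpress in vitro transcription/translation and applied at about 100-200 nM to universal all-10-mer Agilent arrays. The arrays were made double-stranded by primer extension, on fresh or once-stripped slides. Bound protein was detected with fluorescent anti-GST, and scans were normalised with masliner. Each ungapped eight-base word, pooled with its reverse complement, received an E-score (modified Wilcoxon-Mann-Whitney statistic) from the Universal PBM Analysis Suite.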

Sequence | PBM E-score
ACAGCCGG | -0.127
ACCAAGCA | -0.133
AGTTATGC | -0.0113
ACCGCCTA | -0.133
ACAGCACC | -0.219
CCATTTTC | -0.0456
CAACGTCG | 0.192
GACGCGGA | -0.102
ATGTGCTC | 0.00489
ATCCCATG | -0.326
ATACACTC | 0.249
CTCAAGGC | -0.217
GTGAGGGA | -0.269
TAAGCACA | -0.032
GTCCTCAA | -0.1
AATTCTGA | -0.0388
CGGGTCCC | -0.0237
AGGAGAAC | -0.0916
CGTTGTAC | 0.271
ATGGAGTA | 0.0154
ATCCAGCA | -0.0733
CCGCATAC | 0.197
GGTCAGCA | 0.138
GCGTATAC | 0.454
GTCCTCAC | -0.129

Sequence | PBM E-score
CTCGTCTA | 0.261
AAGTACAC | 0.0783
ATAGGCCC | -0.204
AAGCAATA | -0.025
AACGGCTA | 0.197
GGCAGAAA | 0.141
CGCTAGTC | -0.217
ATTCAAGA | -0.102
GACGAACA | 0.0681
CAAAAGGA | -0.0306
CGCACATA | -0.0597
AGAGAGCT | -0.122
CCAGGCCG | -0.12
AGTTGGGG | -0.148
GCGGGCCC | -0.281
CCCTCTTC | -0.0556
ATTCCCAA | -0.0704
ACTGCTCA | -0.00483
GGTCCTTA | -0.0347
AGATTCCG | -0.054
GAAAACCA | -0.131
ATCGCATA | 0.318
ATGGGATA | -0.102
TGACTCAA | -0.0228
ATCCAAAT | 0.0703

Sequence | PBM E-score
AGTTCCGC | 0.0626
ACGAGGAT | 0.355
CTCCTTAC | 0.112
AGCGTCCT | 0.0132
GTTTTTCA | -0.0628
ACATTAAC | 0.165
GGTTATAC | 0.383
CACGTCTA | -0.168
CGGTGCGC | -0.0732
CACTGCTC | -0.0808
AAGACACT | -0.0556
AGGTCTGG | -0.153
ATATACCC | -0.0426
CGCGAGCG | 0.0722
ATGAGAAT | -0.0735
CTATACAG | 0.154
CGCACGAG | -0.0893
AGTTCTTA | 0.00646
ACACTCGG | 0.142
GCTGGGAC | -0.224
ATACACTG | 0.112
GACATACC | -0.152
GCACCCTA | -0.143
AATCCGTA | 0.241
AATCTTTC | -0.0762

Sequence | PBM E-score
GTATGAAC | 0.196
AATCACTG | -0.0215
AGAAGGTG | -0.0354
AGTAGGAG | -0.332
GGGGTAAA | -0.00107
AGAAAGCT | -0.0199
CCGCTAGA | -0.168
GGGACTGA | -0.247
CTGGATGA | -0.229
AGGCATCA | -0.342
CGAAGAGA | 0.145
ACGCCCAG | -0.113
CGCCGACC | -0.105
CCGCACCC | -0.0947
TCAGATAA | -0.0699
AACAGTCC | -0.237
AGATCGCA | 0.0548
AGGAAGCG | 0.179
ACGGACCT | 0.0403
GGCGGGCA | -0.224
CAGTGGAC | -0.22
ATGCCTCA | -0.113
CGGAGCAG | -0.0812
GCTGGCGA | -0.0866
TAGTCGAA | -0.0359

Sequence | PBM E-score
AGTACGAA | 0.384
CGCCAGCA | -0.169
TATATGCA | -0.1
GTAGTAGA | -0.0548
CAACAACA | -0.0959
CCTGCATC | -0.139
AATGCCAG | -0.16
ATGCGTAG | -0.0488
ACGATACT | 0.313
CGGCGAGA | -0.00955
ATGCCACC | -0.135
CTACATAC | 0.073
ATTATAGC | -0.0488
GGTTTCTA | -0.107
CTGTGTTA | 0.0604
ATTATCCA | -0.0754
GATTTAAC | 0.0216
CTACGGCA | 0.0153
GTCGTTCA | 0.467
CCGGCCAA | -0.127
ATAGTTAC | 0.0658
ACAGGTCG | 0.0058
AACCAACC | -0.127
AATTGTGG | -0.112
ATTAATCG | 0.18

Sequence | PBM E-score
GGCTCTGA | -0.237
GTGGGGCA | -0.058
ATCACTTA | 0.0103
CTGTAGGC | -0.264
TCTCATCA | -0.13
CACGTTAC | 0.0193
CTTACTTA | -0.119
GGTGTAAA | -0.0925
CTACACTA | -0.0243
TGGTCCAA | -0.297
CTAGGGAG | -0.131
GACCTAAA | 0.251
AGGTAGGA | -0.17
GAAAGCAA | 0.154
ACACGATA | 0.15
AGCGTACG | 0.354
AGGGTCAT | -0.145
AACGTCGT | 0.38
GTGTAGTA | 0.023
CTGGCTGA | -0.179
ACCTTAGC | -0.208
CCGTAAGA | 0.21
CTAGAACA | -0.0391
AACCCCGA | -0.155
TGAGCGAA | 0.259

Sequence | PBM E-score
GGGCCCCC | -0.119
CCCACCAA | 0.022
AAGGCCCT | -0.147
CTCAAAGC | -0.131
AGTCGCAA | 0.131
ATTAATAG | -0.00044
GAGAGCTC | -0.01
AGATCCAG | -0.257
ATCAGTTC | 0.0403
AATCGCGT | 0.0506
CTCCACTA | -0.0461
AGTTGGAA | -0.0863
AATCGGTA | 0.161
TCACCTAA | -0.00358
GAATGTGA | -0.0574
CATTCGCA | 0.0275
AAACGTCG | 0.342
AATTATGT | -0.222
GAACTGGC | -0.158
CCGAATCG | 0.176
AGACCACA | -0.146
AGAAGAGC | -0.298
